Measurements taken from PubChem BioAssay AID1963576 (National Center for Advancing Translational Sciences (NCATS), 2024).
Hit rate of the full screen: of about 46,000 compounds, about 60 (0.1%) were called active. Roughly 3% stayed inconclusive and do not appear here. The call rests on the fitted dose curve; in most records, active means well fitted inhibition curve with a large enough effect; inconclusive means small, poorly fitted or top-dose-only effect; inactive means no such curve, though single readings can be large or run the other way. This is one part of the list.

Test: Primary qHTS assay for Inhibitors of ovarian cancer metastasis using an organotypic tumor microenvironment (TME) model. Further: nearly all actives have a fitted effect of over 65% in size.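 On activity change, negative = inhibition: plate controls were DMSO wells for no effect and tomatine positive control wells for full effect.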
Conditions: SKOV3ip1-GFP adhesion/invasion on 3D omental model, fluorescence; series mostly up to 45.8 µM; activity change, negative = inhibition: at the top concentration
Outline: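 A 3D layer of primary human omental fibroblasts, mesothelial cells, fibronectin and collagen I, grown 48 hr, received SKOV3ip1-GFP cells in serum-free medium plus compounds at 0.36-46 umol/L. After 2 hr RT and 16 hr 37 C, fixed adherent GFP cells were counted; normalized to DMSO and tomatine.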

SMILES | outcome | activity change, negative = inhibition
O=C(NCc1cccc(F)c1)C1CCN(c2nc3ccccc3nc2C(F)(F)F)CC1 | inactive | 
CC(=O)N1CCc2c(sc3c2c(=O)n(-c2ccccc2)c(=O)n3CC(=O)c2ccc(Cl)cc2)C1 | inactive | 
NC(=O)c1ccc(N(C(N)=O)c2c(F)cccc2F)nc1-c1ccc(F)cc1F |  | inactive: 6.85%
COc1ccccc1NC(=O)C(Cc1ccccc1)NS(=O)(=O)c1ccc2c(c1)CCN2C(C)=O (centres undefined) |  | inactive: 0.907%
O=C(O)c1ccc(Nc2nc3ccccc3c3nncn23)cc1 |  | inactive: 8.36%
CC(=O)N1CCOc2cc(S(=O)(=O)NCc3ccccc3Cl)c(C)cc21 |  | inactive: 11%
Cc1cc(C)c(NC(=O)Cn2c(=O)n(-c3cccc(C(F)(F)F)c3)c(=O)c3c(C)c(C)sc32)c(C)c1 |  | inactive: -5.02%
COc1ccc(-c2cc3nc(N)cc(=O)n3[nH]2)cc1 |  | inactive: 20.8%
CCC(=O)N1c2ccccc2CC1C(=O)NCCCN1CCN(c2cc(C)ccc2C)CC1 (centres undefined) |  | inactive: 4.28%
CCN(C(=O)c1ccc2c(c1)N(Cc1cccc(Cl)c1)C(=O)c1ccccc1S2=O)c1ccccc1 (centres undefined) |  | inactive: -6.61%
CC(=O)Oc1ccccc1C(=O)Nc1ncc([N+](=O)[O-])s1 |  | inactive: 17.3% [at 92.2 µM]
CCOC(=O)c1ccc(NC(=O)CSc2nc3ncc(Br)c(C)c3[nH]2)cc1 |  | inactive: -3.11%
COCCCNC(=O)c1ccc(Cn2c(=O)c3ccccc3n(CC(N)=O)c2=O)cc1 |  | inactive: -4.44%
CC(C)(C)C(=O)Nc1cc(-c2cccc(Br)c2)nn1-c1ccccc1 | inactive | 
Cc1ccc(C(=O)Nc2ccc(F)cc2)cc1S(=O)(=O)N1CCCCCC1 |  | inactive: -17.7%
COc1ccc(NC(=O)c2cc(S(=O)(=O)N3CCOCC3)cn2C)cc1Cl | inactive | 
Cc1cccc(C)c1OCc1cc(=O)n2c(-c3ccccc3)csc2n1 | inactive | 
Cn1nc(-c2ccc(OCC(=O)Nc3cccc(C(F)(F)F)c3)cc2)c2ccccc2c1=O | inactive | 
CC(C)c1ccc2oc(-c3ccc(Cl)c(NC(=O)c4cccs4)c3)nc2c1 | inactive | 
Cc1ccc(C)c(CSc2nc3c([nH]c4ccccc43)c(=O)n2C)c1 |  | inactive: 5.49%
O=C(NCCCc1nc2ccccc2n1Cc1ccc(F)cc1)C1CCCCC1 |  | inactive: -0.314%
CCOc1ccc(NC(=O)CCCc2nc(-c3cccc(OC)c3)no2)cc1 |  | inactive: -7.24%
O=C1CS(=O)(=O)C2(C(=O)Nc3ccccc32)N1c1cccc(Cl)c1 (centres undefined) | inactive | 
COc1cccc2c1cc1c(=O)n(CC(=O)N3CCN(c4ccccc4F)CC3)nc(C)n12 |  | inactive: 18%

SMILES | outcome | activity change, negative = inhibition
Cc1ccc(CNC(=O)c2sc3nc(C)cc(C)c3c2-n2cccc2)cc1 |  | inactive: -12.5%
Cc1ccc(Sc2c(C)nn(C(=O)COc3ccccc3)c2C)cc1 | inactive | 
CC1=C(c2ccc(F)cc2)S(=O)(=O)N=C1N1CCC(C(=O)NCCc2ccco2)CC1 |  | inactive: -1.91%
Cn1cnc(S(=O)(=O)N2CCC(C(=O)NCc3ccccc3)CC2)c1 |  | inactive: -0.151%
COc1ccc(-c2nc(Cn3c(SCc4cccc(Cl)c4)nc4ccncc43)c(C)o2)cc1 | inactive | 
CS(=O)(=O)N1CCc2cc(S(=O)(=O)NCc3ccccc3Cl)ccc21 |  | inactive: -19.3%
COc1ccc(S(=O)(=O)NCCc2csc3nc(-c4ccc(Cl)cc4)nn23)cc1C | inactive | 
COc1ccc2[nH]c(=O)c(CN(C(=O)c3cccc(Cl)c3)c3ccccc3OC)cc2c1 |  | inactive: -21.3%
Cn1c2ccccc2c2cnn(CC(=O)NCc3ccc(Cl)cc3)c(=O)c21 |  | inactive: 1.11%
CC(=O)Nc1ccccc1OCc1cc(=O)n2c3c(sc2n1)CCCC3 | inactive | 
Cc1ccc(NC(=O)Cn2c(C)cc(C)c(C#N)c2=O)cc1 |  | inactive: 18%
CCOc1ccc(NC(=O)Cn2c(=O)oc3cc(S(=O)(=O)NC4CCCC4)ccc32)cc1 |  | inactive: -1.92%
Cc1ccc(Cn2nc(C)c(NC(=O)c3cc(-c4ccc(F)cc4)on3)c2C)cc1 | inactive | 
O=C(CN1CCN(Cc2ccc(F)cc2Cl)S1(=O)=O)Nc1ccc(F)cc1 | inactive | 
Cc1ccc(C(c2sc3nc(-c4ccco4)nn3c2O)N2CCOCC2)cc1 (centres undefined) |  | inactive: 16.2%
COc1ccccc1NC(=O)CSc1nc2ccccc2c(=O)n1CCC(=O)NC1CCCCC1 |  | inactive: -1.65%
Cc1cccc(-n2c(-c3ccco3)nc3c(cnn3-c3ccccc3C)c2=O)c1 | inactive | 
COC(=O)c1cc2c(cc1NC(=O)c1c(C)nn(-c3ccc(C)cc3)c1-n1cccc1)OCO2 |  | inactive: -2.57%
COc1cc(NC(=O)Cn2ccn(Cc3ccccc3OC)c(=O)c2=O)cc(OC)c1 |  | inactive: 2.24%
CCOC(=O)c1c(S(=O)(=O)N2CCCC(C(=O)N(C)Cc3ccccc3)C2)c(C)n(C)c1C (centres undefined) |  | inactive: 13.6%
Cc1ccccc1NC(=O)C1CCC(CNS(=O)(=O)c2ccc3c(c2)C(C)(C)C(=O)N3C)CC1 (centres undefined) |  | inactive: 3.63%
Cc1cc(NS(=O)(=O)c2ccc(NC(=O)c3ccccc3F)cc2)nc(C)n1 |  | inactive: 0.627%
Cc1ccc(-n2ncc3c(N(C)Cc4ccccc4)ncnc32)cc1 |  | inactive: -4.28%
CCOc1ccc(CCNC(=O)c2cn(C)c3ccc(S(=O)(=O)N4CCOCC4)cc3c2=O)cc1OCC |  | inactive: -0.11%

SMILES | outcome | activity change, negative = inhibition
Cc1cccc(OCC(=O)NCC2(N3CCN(C)CC3)CCCCC2)c1C | inactive | 
C=C(C)Cn1c(SCC(=O)Nc2cc(C)ccc2C)nc2sc3c(c2c1=O)CCCC3 |  | inactive: 4.08%
CCc1ccc(S(=O)(=O)c2nnn(-c3ccc(F)cc3)c2N)cc1 | inactive | 
Cc1ccc(NC(=O)c2ccc3snnc3c2)cc1Cl | inactive | 
CCCNC(=O)C(=O)NCC(c1ccc2c(c1)OCO2)N1CCOCC1 (centres undefined) |  | inactive: -1.93%
COc1ccc(OCc2ccc(-c3nc(C#N)c(N4CCC(C)CC4)o3)o2)cc1 |  | inactive: -3.58%
COc1ccccc1N1CCN(S(=O)(=O)c2ccc3[nH]c4c(c3c2)CCCC4)CC1 |  | inactive: 3.23%
COc1ccc(-c2ccnc3[nH]n(-c4ccccc4)c(=O)c23)cc1 | inactive | 
CCOC(=O)c1ccc(N2CCN(c3ccc(F)cc3)CC2)c(NC(=O)Nc2cccc(OC)c2)c1 | inactive | 
CCC(=O)N1CCc2cc(Br)cc(S(=O)(=O)CCC(=O)N3CCN(c4ccccc4OC)CC3)c21 |  | inactive: 4.2%
Cc1ccc(-n2ncc(C(=O)N3CCCCC3)c2C2CCN(C(=O)OC(C)(C)C)CC2)cc1C |  | inactive: -7.77%
COc1ccc(C(=O)N2CC(=O)Nc3ccc(C)cc3C2c2ccccc2)c(OC)c1 (centres undefined) |  | inactive: -25.1%
CCc1ccc(NC(=O)C2CCCN(S(=O)(=O)c3ccc4c(c3)CCCN4C(C)=O)C2)cc1 (centres undefined) |  | inactive: 4.13%
CCOc1cc(-c2nnc(SCC(=O)NCc3ccccc3)nc2-c2ccc(OC)c(OCC)c2)ccc1OC |  | inactive: 0.736%
CCCN(CCC)CCNC(=O)CN1C(=O)COc2ccc(S(=O)(=O)N3CCC(C)CC3)cc21 |  | inactive: 16.2%
CCCCN(CCCC)CCNC(=O)c1cn(CC)c2ccc(S(=O)(=O)N3CCc4ccccc4C3)cc2c1=O | inactive | 
Cc1ccc(OCC(=O)NCC2(N3CCOCC3)CCCCC2)cc1C |  | inactive: -22.9%
CCOC(=O)c1cccc(NC(=O)CCc2c(C)nn(-c3ccc(N4CCCC4)nn3)c2C)c1 | inactive | 
Cc1ccc(-c2nc3ccccc3s2)cc1NC(=O)COc1ccccc1 |  | inactive: -9.84%
COc1ccc(N(Cc2cccs2)C(=O)c2ccc(Br)o2)cc1 |  | inactive: -4.97%
CCC1CN(C(=O)C2CCN(S(=O)(=O)c3c(C)noc3/C=C/c3ccccc3F)CC2)c2cc(Cl)ccc2O1 (centres undefined) | inactive | 
O=C(CN(CCc1ccccc1)S(=O)(=O)c1ccc(Br)cc1)NCc1ccc(Cl)cc1 |  | inactive: -4.85%
CCOC(=O)CSc1nc2c([nH]c3ccccc32)c(=O)n1-c1ccc(OC)cc1 |  | inactive: 25.5%
Cc1oc(-c2cccc(Cl)c2)nc1CN1CCC(C(=O)NCCCN2CCN(c3ccccc3F)CC2)CC1 |  | inactive: 0.226%

SMILES | outcome | activity change, negative = inhibition
CCOC(=O)Cn1nc(-c2ccccc2)c2cnc3ccc(OCC)cc3c21 | inactive | 
Cc1ccc2c(=O)cc(C(=O)Nc3ccc(S(=O)(=O)Nc4nc(C)cc(C)n4)cc3)oc2c1 |  | inactive: -21.8%
CCc1ccc(NC(=O)CSC2=Nc3ccccc3C3=NC(CC(=O)NC4CCCCC4)C(=O)N23)cc1 (centres undefined) |  | inactive: -5.31%
O=C(C1CCN(c2ncnc3c2nc2n3CCCCC2)CC1)N1CCN(c2ccc(F)cc2)CC1 |  | inactive: 7.15%
CCOc1cc(C2C(C(=O)Nc3ccc(OC)cc3)=C(C)Nc3nc(SC)nn32)ccc1O (centres undefined) |  | inactive: -15.5%
COc1ccccc1N1CCN(C(=O)CCc2nnc3n(C)c(=O)c4sccc4n23)CC1 |  | inactive: -10.2%
Cc1cccc(C(=O)Nc2ccc(C(=O)OCc3cc(=O)n4nc(C5CC5)sc4n3)cc2)c1 | inactive | 
COc1ccc(S(=O)(=O)NCC(c2ccc(N(C)C)cc2)N2CCc3ccccc32)cc1 (centres undefined) |  | inactive: -2.54%
Cc1ccc(N2C(=O)NC(NS(=O)(=O)c3ccc(Cl)cc3)(C(F)(F)F)C2=O)cc1C (centres undefined) | inactive | 
O=C(c1ccco1)n1nc(-c2ccc(Cl)cc2)nc1NCc1ccccc1 | inactive | 
COc1ccc(S(=O)(=O)N2CCC(c3ccncc3)CC2)cc1OC |  | inactive: -18.2%
CCc1ccc(NC(=O)Cn2c(=O)n(Cc3nc(-c4ccccc4)no3)c(=O)c3cc4c(cc32)OCO4)cc1 |  | inactive: -1.04%
CCCC(=O)N1CC(=O)Nc2ccc(Cl)cc2C1c1ccccc1 (centres undefined) |  | inactive: 8.72%
CSc1ccc(CCNC(=O)Cn2ncc3c(=O)oc4ccccc4c32)cc1 | inactive | 
CCOc1ccc(OCC)c(NC(=O)C2CCN(S(=O)(=O)c3cn(C)cn3)CC2)c1 |  | inactive: 1.07%
Cc1ccc(NC(=O)C2CCCN2S(=O)(=O)c2ccc3nc(-c4ccccc4)[nH]c3c2)cc1F (centres undefined) | inactive | 
COCCNC(=O)CSc1cn(CC(=O)N2CCCCCC2)c2ccccc12 | inactive | 
Cc1ccn2c(Nc3ccc(F)cc3)c(-c3ccccn3)nc2c1 |  | inactive: -1.9%
COc1ccc(OC)c(Nc2ncnc3c2cnn3-c2cccc(Cl)c2)c1 |  | inactive: -6.1%
Cc1ccc(C)c(CSc2ccc3nnc(CCNS(=O)(=O)c4ccccc4)n3n2)c1 |  | inactive: 37.2%
CCCCC(=O)OC1=C(C(C)=O)N(Cc2ccccc2)S(=O)(=O)c2ccccc21 |  | inactive: 11.2%
O=C(Cn1nc(-c2ccccc2)nc(Cc2ccccc2)c1=O)Nc1ccccc1 |  | inactive: -2.81%
